Test results from the GPR68 mutational scans of Howard et al. (2025).
Scores whose standard error is large were omitted. Two further conditions of the source, in which the scores hardly spread, are not listed. Read del as a deletion of the residues named and ins as an insertion between two positions. For part of these data: The concentration of ogerin is not given here.

B1: GPR68, Q15743 (parent)
chain: MGNITADNSSMSCTIDHTIHQTLAPVVYVTVLVVGFPANCLSLYFGYLQIKARNELGVYLCNLTVADLFYICSLPFWLQYVLQHDNWSHGDLSCQVCGILLYENIYISVGFLCCISVDRYLAVAHPFRFHQFRTLKAAVGVSVVIWAKELLTSIYFLMHEEVIEDENQHRVCFEHYPIQAWQRAINYYRFLVGFLFPICLLLASYQGILRAVRRSHGTQKSRKDQIQRLVLSTVVIFLACFLPYHVLLLVRSVWEASCDFAKGVFNAYHFSLLLTSFNCVADPVLYCFVSETTHRDLARLRGACLAFLTCSRTGRAREAYPLGAPEASGKSGAQGEEPELLTKLHPAFQTPNSPGSGGFPTGRLA

What was measured:
[1] = variants of: B1; test: cAMP reporter score (Enrich2 score, wild type = 0); higher = more signal; HEK293T, FACS bins
[2] = variants of: B1; test: surface expression score (Enrich2 score, wild type = 0); higher = more signal; HEK293T, FACS bins

Variant | cAMP reporter score ([1]; pH 5.5) | cAMP reporter score ([1]; pH 6) | cAMP reporter score ([1]; pH 6, modulator: ogerin) | cAMP reporter score ([1]; pH 6.5, modulator: ogerin) | surface expression score [2]
V235R | -1.35 | -0.87 | -2.13 | -1.78 | -2.75
V235S | 0.867 | 2.16 | 0.504 | – | -0.404
V235T | 1.05 | 1.56 | 2.53 | – | –
V235W | -0.023 | -1.08 | -0.306 | -0.326 | -0.938
V235_F237del | -1.07 | -0.727 | -3.11 | -1.47 | -1.36
V235del | -1.27 | – | – | -1.09 | -2.92
I236_F237del | -1.26 | -1.57 | -2.07 | -1.46 | -2.27
I236_L238del | -1.63 | -0.301 | -2.11 | -1.03 | -2.32
C240del | -2.04 | – | – | -1.75 | -0.355
F241_L242insGSG | -0.804 | -1.34 | -1.82 | -0.965 | -2.27
F241del | -1.87 | -0.984 | -1.7 | -0.56 | -1.83
L242_P243insGSG | -0.24 | – | – | -0.849 | –
P243_Y244insG | -1.39 | -1.19 | -1.92 | -1.11 | -2.74
Y244_V246del | -1.68 | -0.783 | -1.64 | -1.33 | -2.51
H245A | -0.303 | -0.975 | -1.38 | -0.332 | -3.2
H245C | -1.67 | -0.815 | -1.24 | -0.919 | -2.74
H245D | -1.97 | -1.09 | – | -1.66 | -2.71
H245E | -0.971 | -1.05 | -2.77 | -1.55 | -1.05
H245I | -1.8 | -0.451 | -1.59 | -1.22 | -2.06
H245K | -1.09 | -0.926 | – | – | -0.947
H245L | -1.26 | -1.13 | -2.6 | -0.847 | -2.19
H245M | -0.598 | -0.588 | -1.13 | -0.921 | -1.84

Variant | cAMP reporter score ([1]; pH 5.5) | cAMP reporter score ([1]; pH 6) | cAMP reporter score ([1]; pH 6, modulator: ogerin) | cAMP reporter score ([1]; pH 6.5, modulator: ogerin) | surface expression score [2]
H245N | -0.398 | – | -2.53 | -2.03 | -0.386
H245P | -1.65 | -0.932 | -1.4 | -0.501 | -2.57
H245Q | -0.809 | -1.39 | -1.57 | -1.43 | -1.51
H245R | -1.74 | -1.03 | -0.899 | -0.786 | -2.14
H245S | -0.436 | 0.843 | -1.33 | -1.27 | -1.68
H245T | -0.552 | 0.328 | -1.02 | -0.531 | -2.48
H245V | -1.52 | -1.69 | -1.83 | -1.22 | -2.27
H245W | -1.53 | -0.759 | -1.2 | -1.17 | -2.1
H245Y | -1.58 | -1.53 | -1.72 | -0.601 | –
L247_L248del | -1.36 | -0.496 | -1.47 | -1.07 | -2.58
L249_R251del | -2.27 | -1.2 | – | -1.45 | -2.74
L249_V250insGS | -1.03 | -0.897 | -1.53 | -1.27 | -1.96
V250_R251insGSG | -1.62 | -1.1 | -1.46 | -1.45 | -1.85
S252A | 0.532 | 2.19 | 0.008 | 2.26 | -1.22
S252C | 0.33 | – | 0.025 | 0.927 | -1.74
S252E | -1.15 | -1.13 | -1.58 | -1.3 | -1.62
S252F | -1.22 | – | -0.71 | -1.39 | -1.88
S252G | -0.603 | -0.011 | -0.216 | 0.178 | -0.606
S252H | -0.211 | -0.896 | -1.46 | -1.15 | -1.34
S252I | 0.293 | -0.763 | 0.013 | -0.461 | -0.305
S252K | 0.03 | 0.155 | -0.485 | – | -2.35
S252L | -1.17 | -1.35 | -0.799 | -0.759 | -0.003

Variant | cAMP reporter score ([1]; pH 5.5) | cAMP reporter score ([1]; pH 6) | cAMP reporter score ([1]; pH 6, modulator: ogerin) | cAMP reporter score ([1]; pH 6.5, modulator: ogerin) | surface expression score [2]
S252M | -0.791 | -1.28 | -1.81 | – | -0.54
S252N | -0.538 | -1.17 | -0.845 | -1.44 | -0.214
S252P | -0.641 | -1.27 | -1.37 | -0.959 | –
S252Q | -1 | -1.23 | -1.39 | -2.2 | –
S252R | -1.29 | -0.451 | -1.28 | -0.652 | -1.43
S252T | -0.08 | -0.674 | 0.196 | 0.067 | 0.561
S252V | 0.535 | -0.551 | 1.41 | 0.343 | -1.05
S252W | -1.35 | -1.02 | – | -1.27 | -1.99
S252Y | -1.28 | -0.987 | -1.62 | -1.09 | -2.04
V253_W254del | -1.47 | – | -0.938 | -0.537 | -2.24
V253_W254insG | -0.406 | 1.22 | -1.52 | – | 2.38
E255_A256insG | -0.695 | -0.731 | -0.894 | -1.16 | 1.68
A256_S257insGSG | -0.645 | -0.592 | -0.382 | -0.645 | 1.21
A256del | -0.409 | -1.26 | -2.13 | – | -0.719
C258_F260del | -1.49 | -0.91 | -1.59 | -1.17 | -2.03
C258del | -1.2 | -1.55 | -1.34 | -1.46 | -1.25
D259A | 1.92 | 1.67 | 1.43 | 0.233 | -0.617
D259C | -0.033 | -0.64 | -1.32 | -1.72 | -2.06
D259E | 0.395 | 1.05 | 1.05 | 0.421 | 0.287
D259G | -0.249 | -0.396 | -0.178 | -0.652 | -0.189
